Measured values as given in a collection of fitness landscapes (doi:10.1126/science.1257360).
The other results are listed elsewhere or left out.

B1: PhoQ; a variant is named by its letters at X, in order, P23837 (parent)
chain: MKKLLRLFFPLSLRVRFLLATAAVVLVLSLAYGMVALIGYSVSFDKTTFRLLRGESNLFYTLAKWENNKLHVELPENIDKQSPTMTLIYDENGQLLWAQRDVPWLMKMIQPDWLKSNGFHEIEADVNDTSLLLSGDHSIQQQLQEVREDDDDAEMTHSVAVNVYPATSRMPKLTIVVVDTIPVELKSSYMVWSWFIYVLSANLLLVIPLLWVAAWWSLRPIEALAKEVRELEEHNRELLNPATTRELTSLVRNLNRLLKSERERYDKYRTTLTDLTHSLKTPLXXLQXXLRSLRSEKMSVSDAEPVMLEQISRISQQIGYYLHRASMRGGTLLSRELHPVAPLLDNLTSALNKVYQRKGVNISLDISPEISFVGEQNDFVEVMGNVLDNACKYCLEFVEISARQTDEHLYIVVEDDGPGIPLSKREVIFDRGQRVDTLRPGQGVGLAVAREITEQYEGKIVAGESMLGGARMEVIFGRQHSAPKDE

Variants of: B1
Experiment: enrichment ratio after two sorts for PhoP signalling (ratio (wild type AVST 3.29)); higher = more functional
Details: with PhoP (E. coli)

Row | Variant | enrichment ratio
1 | YQVD | ≤ 0.25
2 | EDTI | ≤ 0.25
3 | TENW | ≤ 0.25
4 | VYME | ≤ 0.25
5 | HPIH | ≤ 0.25
6 | GKVS | ≤ 0.25
7 | DYGT | ≤ 0.25
8 | HMQI | ≤ 0.25
9 | HRIC | ≤ 0.25
10 | TNQS | 3.44
11 | MRSV | ≤ 0.25
12 | QMWM | ≤ 0.25
13 | NYCQ | ≤ 0.25
14 | RMLL | ≤ 0.25
15 | WGNY | ≤ 0.25
16 | TPKC | ≤ 0.25
17 | PYPV | ≤ 0.25
18 | SNKF | ≤ 0.25
19 | FTEI | ≤ 0.25
20 | EGVW | ≤ 0.25
21 | QNIC | ≤ 0.25
22 | VGDP | ≤ 0.25
23 | RQMR | ≤ 0.25
24 | QRIT | ≤ 0.25
25 | VPIE | ≤ 0.25
26 | NDQF | ≤ 0.25

Row | Variant | enrichment ratio
27 | PRYV | ≤ 0.25
28 | RMQD | ≤ 0.25
29 | GDFA | ≤ 0.25
30 | LSLL | 8.24
31 | PCQY | ≤ 0.25
32 | TVPP | ≤ 0.25
33 | TTKL | ≤ 0.25
34 | RFGG | ≤ 0.25
35 | FMSW | ≤ 0.25
36 | QYDW | ≤ 0.25
37 | ACMH | 6
38 | TKHF | ≤ 0.25
39 | YWSE | ≤ 0.25
40 | NKRE | ≤ 0.25
41 | PDVQ | ≤ 0.25
42 | RGFP | ≤ 0.25
43 | YVWY | ≤ 0.25
44 | SIIF | 0.435
45 | YVDP | ≤ 0.25
46 | AKHK | ≤ 0.25
47 | SLDN | ≤ 0.25
48 | RYHW | ≤ 0.25
49 | PVRA | ≤ 0.25
50 | KYIY | ≤ 0.25
51 | SGEP | ≤ 0.25
52 | MVKW | ≤ 0.25

Row | Variant | enrichment ratio
53 | QHPY | ≤ 0.25
54 | SQYW | ≤ 0.25
55 | KDPS | ≤ 0.25
56 | PRPS | ≤ 0.25
57 | YPYE | ≤ 0.25
58 | VNGK | ≤ 0.25
59 | ASCF | 9.91
60 | SPVL | ≤ 0.25
61 | VNWM | ≤ 0.25
62 | LVLA | ≤ 0.25
63 | GCGN | ≤ 0.25
64 | VKFP | ≤ 0.25
65 | QTSM | 5.94
66 | KIEM | ≤ 0.25
67 | SVWS | ≤ 0.25
68 | YERC | ≤ 0.25
69 | IFFR | ≤ 0.25
70 | FMTT | ≤ 0.25
71 | KHQC | ≤ 0.25
72 | HDWA | ≤ 0.25
73 | WDMH | ≤ 0.25
74 | GDCP | ≤ 0.25
75 | YKLG | ≤ 0.25
76 | NGSC | ≤ 0.25
77 | CFRD | ≤ 0.25
78 | TNAF | 1.98

Row | Variant | enrichment ratio
79 | HDIW | ≤ 0.25
80 | SNRE | ≤ 0.25
81 | SHIN | ≤ 0.25
82 | EAFL | ≤ 0.25
83 | RYKL | ≤ 0.25
84 | EFGF | ≤ 0.25
85 | PDEF | ≤ 0.25
86 | QWLQ | ≤ 0.25
87 | TRYR | ≤ 0.25
88 | TAYI | 10.2
89 | IYTR | ≤ 0.25
90 | LVTQ | ≤ 0.25
91 | IPKI | ≤ 0.25
92 | KAGR | ≤ 0.25
93 | TRFQ | ≤ 0.25
94 | WNWH | ≤ 0.25
95 | AICI | 16.9
96 | CISV | 0.57
97 | VNNP | ≤ 0.25
98 | VMHV | ≤ 0.25
99 | FKCS | ≤ 0.25
100 | MTVR | ≤ 0.25
101 | QNHC | ≤ 0.25
102 | WQVW | ≤ 0.25
103 | RVTK | ≤ 0.25
104 | AVSR | 9.39

Row | Variant | enrichment ratio
105 | YKYP | ≤ 0.25
106 | MDGE | ≤ 0.25
107 | WCVG | ≤ 0.25
108 | KPYM | ≤ 0.25
109 | AKEP | ≤ 0.25
110 | IWLR | ≤ 0.25
111 | QYPI | ≤ 0.25
112 | WREQ | ≤ 0.25
113 | MMTH | ≤ 0.25
114 | RSST | ≤ 0.25
115 | ASVI | 5.75
116 | RTWY | ≤ 0.25
117 | AEDR | ≤ 0.25
118 | LAYY | ≤ 0.25
119 | WNMN | 12
120 | KVYT | ≤ 0.25
121 | LFEI | ≤ 0.25
122 | FIVW | ≤ 0.25
123 | NDRS | ≤ 0.25
124 | RIDQ | ≤ 0.25
125 | SHSS | ≤ 0.25
126 | WSRD | ≤ 0.25
127 | IFGP | ≤ 0.25
128 | DNVF | ≤ 0.25
129 | QDAY | ≤ 0.25
130 | PRRP | ≤ 0.25

Row | Variant | enrichment ratio
131 | QAMQ | 44.4
132 | MYSW | ≤ 0.25
133 | DRVG | ≤ 0.25
134 | SYYN | ≤ 0.25
135 | PCGP | ≤ 0.25
136 | WMYK | ≤ 0.25
137 | EYDW | ≤ 0.25
138 | WMNV | ≤ 0.25
139 | QSLT | ≤ 0.25
140 | KVCD | ≤ 0.25
141 | TYHE | ≤ 0.25
142 | WPFW | ≤ 0.25
143 | TIYE | ≤ 0.25
144 | GTYF | ≤ 0.25
145 | VPAV | ≤ 0.25
146 | HSFV | ≤ 0.25
147 | ENRQ | ≤ 0.25
148 | MFGV | ≤ 0.25
149 | MDKN | ≤ 0.25
150 | PEVI | ≤ 0.25
151 | VSIH | ≤ 0.25
152 | MAIQ | ≤ 0.25
153 | PIDS | ≤ 0.25
